{"source": "the supplement of paper PMC8728848", "experiment_in_all_cases": "glycan array binding signal (z-score within array); higher = stronger binding", "settings_in_all_cases": "glycan notation: IUPAC condensed, linker removed", "key": {"[1]": {"molecular_target": "GlcNAc(b1-3)Gal(b1-4)GlcNAc(b1-3)Gal(b1-4)GlcNAc(b1-3)GalNAc", "procedure,_shortened": "(§1)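 Negative Z-scores can be read as non-binding. The Z-score is calculated within each array and then averaged across arrays of one protein sequence at different concentrations or buffers and across linkers. Arrays, 3228 in all, were curated from the Consortium for Functional Glycomics database and kept only where the protein sequence was available.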"}, "[2]": {"molecular_target": "GlcNAc(b1-3)Gal(b1-4)GlcNAc(b1-3)GalNAc", "procedure,_shortened": "as §1"}, "[3]": {"molecular_target": "GlcNAc(b1-3)Gal(b1-4)GlcNAc(b1-3)[GlcNAc(b1-3)Gal(b1-4)GlcNAc(b1-3)]GalNAc", "procedure,_shortened": "as §1"}, "[4]": {"molecular_target": "GlcNAc(b1-3)Gal(b1-4)GlcNAc(b1-6)[Gal(b1-3)]GalNAc", "procedure,_shortened": "as §1"}, "[5]": {"molecular_target": "GlcNAc(b1-3)Gal(b1-4)GlcNAc(b1-6)[GlcNAc(b1-3)Gal(b1-3)]GalNAc", "procedure,_shortened": "as §1"}, "[6]": {"molecular_target": "GlcNAc(b1-3)Gal(b1-4)GlcNAc(b1-6)[GlcNAc(b1-3)]Gal(b1-4)GlcNAc", "procedure,_shortened": "as §1"}, "GlcNAc(b1-3)GalNAc": {"molecular_target": "GlcNAc(b1-3)GalNAc", "procedure,_shortened": "as §1"}, "GlcNAc(b1-3)Man": {"molecular_target": "GlcNAc(b1-3)Man", "procedure,_shortened": "as §1"}, "[7]": {"molecular_target": "GlcNAc(b1-3)[GlcNAc(b1-4)][GlcNAc(b1-6)]GlcNAc", "procedure,_shortened": "as §1"}, "[8]": {"molecular_target": "GlcNAc(b1-3)[GlcNAc(b1-6)]Gal(b1-4)GlcNAc", "procedure,_shortened": "as §1"}, "[9]": {"molecular_target": "GlcNAc(b1-3)[GlcNAc(b1-6)]GalNAc", "procedure,_shortened": "as §1"}, "[10]": {"molecular_target": "GlcNAc(b1-4)Gal(b1-4)GlcNAc", "procedure,_shortened": "as §1"}, "GlcNAc(b1-4)GlcNAc": {"molecular_target": "GlcNAc(b1-4)GlcNAc", "procedure,_shortened": "as §1"}, "[11]": {"molecular_target": "GlcNAc(b1-4)GlcNAc(b1-4)GlcNAc", "procedure,_shortened": "as §1"}, "[12]": {"molecular_target": "GlcNAc(b1-4)GlcNAc(b1-4)GlcNAc(b1-4)GlcNAc(b1-4)GlcNAc", "procedure,_shortened": "as §1"}, "[13]": {"molecular_target": "GlcNAc(b1-4)GlcNAc(b1-4)GlcNAc(b1-4)GlcNAc(b1-4)GlcNAc(b1-4)GlcNAc", "procedure,_shortened": "as §1"}, "[14]": {"molecular_target": "GlcNAc(b1-4)[GlcNAc(b1-6)]GalNAc", "procedure,_shortened": "as §1"}, "[15]": {"molecular_target": "GlcNAc(b1-6)Gal(b1-4)GlcNAc", "procedure,_shortened": "as §1"}, "GlcNAc(b1-6)GalNAc": {"molecular_target": "GlcNAc(b1-6)GalNAc", "procedure,_shortened": "as §1"}, "[16]": {"molecular_target": "GlcNAc6S(b1-3)Gal(b1-4)GlcNAc", "procedure,_shortened": "as §1"}, "Kdn(a2-3)Gal(b1-3)GalNAc": {"molecular_target": "Kdn(a2-3)Gal(b1-3)GalNAc", "procedure,_shortened": "as §1"}, "Kdn(a2-3)Gal(b1-3)GlcNAc": {"molecular_target": "Kdn(a2-3)Gal(b1-3)GlcNAc", "procedure,_shortened": "as §1"}, "Kdn(a2-3)Gal(b1-4)Glc": {"molecular_target": "Kdn(a2-3)Gal(b1-4)Glc", "procedure,_shortened": "as §1"}, "Kdn(a2-3)Gal(b1-4)GlcNAc": {"molecular_target": "Kdn(a2-3)Gal(b1-4)GlcNAc", "procedure,_shortened": "as §1"}, "[17]": {"molecular_target": "Kdn(a2-3)Gal(b1-4)[Fuc(a1-3)]GlcNAc", "procedure,_shortened": "as §1"}, "Kdn(a2-6)Gal(b1-4)GlcNAc": {"molecular_target": "Kdn(a2-6)Gal(b1-4)GlcNAc", "procedure,_shortened": "as §1"}, "[18]": {"molecular_target": "Man(a1-2)Man(a1-2)Man(a1-3)Man", "procedure,_shortened": "as §1"}, "[19]": {"molecular_target": "Man(a1-2)Man(a1-2)Man(a1-6)[Man(a1-3)]Man", "procedure,_shortened": "as §1"}, "Man(a1-2)Man(a1-3)Man": {"molecular_target": "Man(a1-2)Man(a1-3)Man", "procedure,_shortened": "as §1"}, "[20]": {"molecular_target": "Man(a1-2)Man(a1-3)[Man(a1-2)Man(a1-6)]Man", "procedure,_shortened": "as §1"}, "[21]": {"molecular_target": "Man(a1-2)Man(a1-3)[Man(a1-2)Man(a1-6)]Man(a1-6)[Man(a1-2)Man(a1-2)Man(a1-3)]Man", "procedure,_shortened": "as §1"}, "[22]": {"molecular_target": "Man(a1-2)Man(a1-3)[Man(a1-2)Man(a1-6)]Man(a1-6)[Man(a1-2)Man(a1-2)Man(a1-3)]Man(b1-4)GlcNAc(b1-4)GlcNAc", "procedure,_shortened": "as §1"}, "[23]": {"molecular_target": "Man(a1-2)Man(a1-3)[Man(a1-6)]Man(a1-6)[Man(a1-2)Man(a1-3)]Man(b1-4)GlcNAc(b1-4)GlcNAc", "procedure,_shortened": "as §1"}, "[24]": {"molecular_target": "Man(a1-2)Man(a1-6)[Man(a1-3)]Man(a1-6)[Man(a1-2)Man(a1-2)Man(a1-3)]Man", "procedure,_shortened": "as §1"}, "[25]": {"molecular_target": "Man(a1-2)Man(a1-6)[Man(a1-3)]Man(a1-6)[Man(a1-2)Man(a1-2)Man(a1-3)]Man(b1-4)GlcNAc(b1-4)GlcNAc", "procedure,_shortened": "as §1"}, "Man(a1-3)[Man(a1-6)]Man": {"molecular_target": "Man(a1-3)[Man(a1-6)]Man", "procedure,_shortened": "as §1"}, "[26]": {"molecular_target": "Man(a1-3)[Man(a1-6)]Man(a1-6)[Man(a1-2)Man(a1-3)]Man(b1-4)GlcNAc(b1-4)GlcNAc", "procedure,_shortened": "as §1"}}, "note": "The other results are listed elsewhere or left out.", "data": [{"binder": "PX9937F-bfa-516-16-516 (Bacteroides fragilis) (protein) LDIDPTSSIADSNYWKTEAQFSTFNVGLHALLRECSFNFFLLGEPRADIYGDVPFGGEATQGMERLPFNTINKENTGISNFAGMYKVINQINLMIAKTKETTVLSEAGKNYYLGEAYGMRAYLYFHLLRSWGDVILYLDYTNGASLDLSNLSKAASPAEEVMKQIKEDITASEKGFGSDYSFKYGRYYWSMAATQMLKGEVYLWSGRQMGGGTADYTTAKTALQSIVSNANVSLQDDFSKVFAYNNKDNSEIIFSIRNAKDEYNMWDDRFRQNLVPQQAYMTSTYCNKEGVSFKDLPEGQLNGLIRLQIRYDLYNKAFRDGDTRKDASMTAVYQKQQDGTVKYIAPFCNKYQGVLLDGASQRSFLNDYPIYRYADCLLLLAEAKALLGEDPTAEINQVRERAYGKEFFEANKATLAYPNDKGDFYTDNKYMSGDEDPLEAILKERMREFMFEGKRWYDLRLLGADYVTKRTSAVATRLLWPINESVLTDNPALKQTPGYQN", "values": [{"measurement": "glycan array binding signal (z-score)", "setting": "[1]", "result": -0.334}, {"measurement": "glycan array binding signal (z-score)", "setting": "[2]", "result": -0.191}, {"measurement": "glycan array binding signal (z-score)", "setting": "[3]", "result": 0.342}, {"measurement": "glycan array binding signal (z-score)", "setting": "[4]", "result": -0.127}, {"measurement": "glycan array binding signal (z-score)", "setting": "[5]", "result": -0.241}, {"measurement": "glycan array binding signal (z-score)", "setting": "[6]", "result": -0.049}, {"measurement": "glycan array binding signal (z-score)", "setting": "GlcNAc(b1-3)GalNAc", "result": -0.005}, {"measurement": "glycan array binding signal (z-score)", "setting": "GlcNAc(b1-3)Man", "result": -0.36}, {"measurement": "glycan array binding signal (z-score)", "setting": "[7]", "result": 0.037}, {"measurement": "glycan array binding signal (z-score)", "setting": "[8]", "result": -0.272}, {"measurement": "glycan array binding signal (z-score)", "setting": "[9]", "result": -0.242}, {"measurement": "glycan array binding signal (z-score)", "setting": "[10]", "result": -0.271}, {"measurement": "glycan array binding signal (z-score)", "setting": "GlcNAc(b1-4)GlcNAc", "result": -0.052}, {"measurement": "glycan array binding signal (z-score)", "setting": "[11]", "result": -0.306}, {"measurement": "glycan array binding signal (z-score)", "setting": "[12]", "result": -0.172}, {"measurement": "glycan array binding signal (z-score)", "setting": "[13]", "result": -0.318}, {"measurement": "glycan array binding signal (z-score)", "setting": "[14]", "result": -0.127}, {"measurement": "glycan array binding signal (z-score)", "setting": "[15]", "result": -0.106}, {"measurement": "glycan array binding signal (z-score)", "setting": "GlcNAc(b1-6)GalNAc", "result": -0.129}, {"measurement": "glycan array binding signal (z-score)", "setting": "[16]", "result": -0.002}, {"measurement": "glycan array binding signal (z-score)", "setting": "Kdn(a2-3)Gal(b1-3)GalNAc", "result": -0.345}, {"measurement": "glycan array binding signal (z-score)", "setting": "Kdn(a2-3)Gal(b1-3)GlcNAc", "result": -0.309}, {"measurement": "glycan array binding signal (z-score)", "setting": "Kdn(a2-3)Gal(b1-4)Glc", "result": -0.137}, {"measurement": "glycan array binding signal (z-score)", "setting": "Kdn(a2-3)Gal(b1-4)GlcNAc", "result": -0.269}, {"measurement": "glycan array binding signal (z-score)", "setting": "[17]", "result": 0.281}, {"measurement": "glycan array binding signal (z-score)", "setting": "Kdn(a2-6)Gal(b1-4)GlcNAc", "result": -0.215}, {"measurement": "glycan array binding signal (z-score)", "setting": "[18]", "result": -0.273}, {"measurement": "glycan array binding signal (z-score)", "setting": "[19]", "result": -0.284}, {"measurement": "glycan array binding signal (z-score)", "setting": "Man(a1-2)Man(a1-3)Man", "result": -0.031}, {"measurement": "glycan array binding signal (z-score)", "setting": "[20]", "result": -0.294}, {"measurement": "glycan array binding signal (z-score)", "setting": "[21]", "result": -0.328}, {"measurement": "glycan array binding signal (z-score)", "setting": "[22]", "result": 0.025}, {"measurement": "glycan array binding signal (z-score)", "setting": "[23]", "result": -0.046}, {"measurement": "glycan array binding signal (z-score)", "setting": "[24]", "result": -0.156}, {"measurement": "glycan array binding signal (z-score)", "setting": "[25]", "result": -0.162}, {"measurement": "glycan array binding signal (z-score)", "setting": "Man(a1-3)[Man(a1-6)]Man", "result": -0.14}, {"measurement": "glycan array binding signal (z-score)", "setting": "[26]", "result": -0.197}]}]}
